# Results: the supplement of paper PMC8728848
# This is one part of the list.
# B1: Gal 7 (Homo sapiens) (protein)
# chain: MSNVPHKSSLPEGIRPGTVLRIRGLVPPNASRFHVNLLCGEEGGSDAALHFNPRLDTSEVVFNSKEGGSWGREERGPGVPFGRGQPFEVLIIASDDGFKAVVGDAQYHHFRHRLPLARVRLVEVGGDVQLDSVRIF
# Key:
# Test in all cases: glycan array binding signal (z-score within array); higher = stronger binding
# Details in all cases: glycan notation: IUPAC condensed, linker removed
# [1] = target: Neu5Ac(a2-6)Gal(b1-4)GlcNAc(b1-3)Gal(b1-4)[Fuc(a1-3)]GlcNAc(b1-3)Gal(b1-4)[Fuc(a1-3)]GlcNAc
# Method in brief: (§1)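 Glycan array binding is given as a within-array Z-score, which can be read as non-binding when negative. The arrays, 3228 of them, came from the Consortium for Functional Glycomics database and were retained only where the protein sequence was available. Z-scores were averaged across arrays of the same protein sequence at different concentrations or buffers and across linkers.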
# [2] = target: Neu5Ac(a2-6)Gal(b1-4)GlcNAc(b1-3)GalNAc
# Method in brief: as §1
# [3] = target: Neu5Ac(a2-6)Gal(b1-4)GlcNAc(b1-3)[Neu5Ac(a2-6)Gal(b1-4)GlcNAc(b1-6)]GalNAc
# Method in brief: as §1
# [4] = target: Neu5Ac(a2-6)Gal(b1-4)GlcNAc(b1-6)GalNAc
# Method in brief: as §1
# [5] = target: Neu5Ac(a2-6)Gal(b1-4)GlcNAc(b1-6)[Gal(b1-3)GlcNAc(b1-3)]Gal(b1-4)Glc
# Method in brief: as §1
# [6] = target: Neu5Ac(a2-6)Gal(b1-4)GlcNAc(b1-6)[Gal(b1-3)]GalNAc
# Method in brief: as §1
# [7] = target: Neu5Ac(a2-6)Gal(b1-4)GlcNAc6S
# Method in brief: as §1
# Neu5Ac(a2-6)GalNAc = target: Neu5Ac(a2-6)GalNAc
# Method in brief: as §1
# [8] = target: Neu5Ac(a2-6)GalNAc(b1-4)GlcNAc
# Method in brief: as §1
# [9] = target: Neu5Ac(a2-6)GalNAc(b1-4)GlcNAc6S
# Method in brief: as §1
# [10] = target: Neu5Ac(a2-6)GlcNAc(b1-4)GlcNAc
# Method in brief: as §1
# [11] = target: Neu5Ac(a2-6)GlcNAc(b1-4)GlcNAc(b1-4)GlcNAc
# Method in brief: as §1
# Neu5Ac(a2-8)Neu5Ac = target: Neu5Ac(a2-8)Neu5Ac
# Method in brief: as §1
# [12] = target: Neu5Ac(a2-8)Neu5Ac(a2-3)Gal(b1-3)GalNAc(b1-4)[Neu5Ac(a2-3)]Gal(b1-4)Glc
# Method in brief: as §1
# [13] = target: Neu5Ac(a2-8)Neu5Ac(a2-3)Gal(b1-3)GalNAc(b1-4)[Neu5Ac(a2-8)Neu5Ac(a2-3)]Gal(b1-4)Glc
# Method in brief: as §1
# [14] = target: Neu5Ac(a2-8)Neu5Ac(a2-3)Gal(b1-4)Glc
# Method in brief: as §1
# [15] = target: Neu5Ac(a2-8)Neu5Ac(a2-3)Gal(b1-4)GlcNAc
# Method in brief: as §1
# [16] = target: Neu5Ac(a2-8)Neu5Ac(a2-3)[Gal(b1-3)GalNAc(b1-4)]Gal(b1-4)Glc
# Method in brief: as §1
# [17] = target: Neu5Ac(a2-8)Neu5Ac(a2-3)[GalNAc(b1-4)]Gal(b1-4)Glc
# Method in brief: as §1
# [18] = target: Neu5Ac(a2-8)Neu5Ac(a2-8)Neu5Ac
# Method in brief: as §1
# [19] = target: Neu5Ac(a2-8)Neu5Ac(a2-8)Neu5Ac(a2-3)Gal(b1-4)Glc
# Method in brief: as §1
# [20] = target: Neu5Ac(a2-8)Neu5Ac(a2-8)Neu5Ac(a2-3)[Gal(b1-3)GalNAc(b1-4)]Gal(b1-4)Glc
# Method in brief: as §1
# [21] = target: Neu5Ac(a2-8)Neu5Ac(a2-8)Neu5Ac(a2-3)[GalNAc(b1-4)]Gal(b1-4)Glc
# Method in brief: as §1
# [22] = target: Neu5Ac(a2-8)Neu5Ac(a2-8)Neu5Ac(a2-8)Neu5Ac(a2-3)[GalNAc(b1-4)]Gal(b1-4)Glc
# Method in brief: as §1
# [23] = target: Neu5Ac(a2-8)Neu5Gc(a2-3)Gal(b1-4)GlcNAc
# Method in brief: as §1
# [24] = target: Neu5Ac(b2-6)Gal(b1-4)GlcNAc
# Method in brief: as §1
# Neu5Ac(b2-6)GalNAc = target: Neu5Ac(b2-6)GalNAc
# Method in brief: as §1
# [25] = target: Neu5Ac9Ac(a2-3)Gal(b1-3)GlcNAc
# Method in brief: as §1
# [26] = target: Neu5Ac9Ac(a2-3)Gal(b1-4)GlcNAc
# Method in brief: as §1
# [27] = target: Neu5Ac9Ac(a2-6)Gal(b1-4)GlcNAc
# Method in brief: as §1
# [28] = target: Neu5Gc(a2-3)Gal(b1-3)GlcNAc
# Method in brief: as §1
# [29] = target: Neu5Gc(a2-3)Gal(b1-3)[Fuc(a1-4)]GlcNAc
# Method in brief: as §1
# Neu5Gc(a2-3)Gal(b1-4)Glc = target: Neu5Gc(a2-3)Gal(b1-4)Glc
# Method in brief: as §1
# [30] = target: Neu5Gc(a2-3)Gal(b1-4)GlcNAc
# Method in brief: as §1
# [31] = target: Neu5Gc(a2-3)Gal(b1-4)GlcNAc(b1-3)Gal(b1-4)GlcNAc(b1-2)Man(a1-3)[Neu5Gc(a2-3)Gal(b1-4)GlcNAc(b1-3)Gal(b1-4)GlcNAc(b1-2)Man(a1-6)]Man(b1-4)GlcNAc(b1-4)GlcNAc
# Method in brief: as §1
# [32] = target: Neu5Gc(a2-3)Gal(b1-4)[Fuc(a1-3)]GlcNAc
# Method in brief: as §1
# [33] = target: Neu5Gc(a2-3)Gal(b1-4)[Fuc(a1-4)]GlcNAc
# Method in brief: as §1
# [34] = target: Neu5Gc(a2-6)Gal(b1-4)GlcNAc
# Method in brief: as §1
# Neu5Gc(a2-6)GalNAc = target: Neu5Gc(a2-6)GalNAc
# Method in brief: as §1
# [35] = target: Neu5Gc(a2-8)Neu5Ac(a2-3)Gal(b1-4)GlcNAc
# Method in brief: as §1
# [36] = target: Neu5Gc(a2-8)Neu5Gc(a2-3)Gal(b1-4)GlcNAc
# Method in brief: as §1
# [37] = target: Neu5Gc(a2-8)Neu5Gc(a2-3)Gal(b1-4)GlcNAc(b1-3)Gal(b1-4)GlcNAc
# Method in brief: as §1
# [38] = target: Neu5Gc(a2-8)Neu5Gc(a2-6)Gal(b1-4)GlcNAc
# Method in brief: as §1
# [39] = target: Neu5Gc(b2-6)Gal(b1-4)GlcNAc
# Method in brief: as §1
binder,measurement,setting,value
B1,glycan array binding signal (z-score),[1],-0.274
same,glycan array binding signal (z-score),[2],0.203
same,glycan array binding signal (z-score),[3],0.001
same,glycan array binding signal (z-score),[4],0.369
same,glycan array binding signal (z-score),[5],-0.094
same,glycan array binding signal (z-score),[6],-0.265
same,glycan array binding signal (z-score),[7],-0.284
same,glycan array binding signal (z-score),Neu5Ac(a2-6)GalNAc,-0.315
same,glycan array binding signal (z-score),[8],-0.38
same,glycan array binding signal (z-score),[9],-0.136
same,glycan array binding signal (z-score),[10],-0.318
same,glycan array binding signal (z-score),[11],-0.266
same,glycan array binding signal (z-score),Neu5Ac(a2-8)Neu5Ac,-0.266
same,glycan array binding signal (z-score),[12],-0.224
same,glycan array binding signal (z-score),[13],-0.192
same,glycan array binding signal (z-score),[14],0.101
same,glycan array binding signal (z-score),[15],-0.297
same,glycan array binding signal (z-score),[16],-0.117
same,glycan array binding signal (z-score),[17],-0.206
same,glycan array binding signal (z-score),[18],-0.331
same,glycan array binding signal (z-score),[19],-0.015
same,glycan array binding signal (z-score),[20],-0.191
same,glycan array binding signal (z-score),[21],-0.32
same,glycan array binding signal (z-score),[22],-0.227
same,glycan array binding signal (z-score),[23],-0.299
same,glycan array binding signal (z-score),[24],-0.328
same,glycan array binding signal (z-score),Neu5Ac(b2-6)GalNAc,-0.347
same,glycan array binding signal (z-score),[25],-0.346
same,glycan array binding signal (z-score),[26],-0.339
same,glycan array binding signal (z-score),[27],-0.307
same,glycan array binding signal (z-score),[28],0.572
same,glycan array binding signal (z-score),[29],-0.334
same,glycan array binding signal (z-score),Neu5Gc(a2-3)Gal(b1-4)Glc,-0.174
same,glycan array binding signal (z-score),[30],-0.336
same,glycan array binding signal (z-score),[31],-0.158
same,glycan array binding signal (z-score),[32],0.064
same,glycan array binding signal (z-score),[33],-0.411
same,glycan array binding signal (z-score),[34],-0.292
same,glycan array binding signal (z-score),Neu5Gc(a2-6)GalNAc,-0.27
same,glycan array binding signal (z-score),[35],-0.294
same,glycan array binding signal (z-score),[36],-0.289
same,glycan array binding signal (z-score),[37],-0.286
same,glycan array binding signal (z-score),[38],-0.291
same,glycan array binding signal (z-score),[39],-0.301
